# Laboratory results taken from PubChem BioAssay AID2451 (National Center for Advancing Translational Sciences (NCATS), 2010).
# The whole screen tested about 290,000 compounds, of which about 2,100 (0.72%) were called active. This list was built around the results that the source calls inconclusive (neither active nor inactive); the mix of calls is not that of the screen. Calls follow the shape of the dose curve; as a rule, active = well fitted inhibition curve with a large enough effect; inconclusive = small, poorly fitted or top-dose-only effect, or effect the other way; inactive = flat fitted curve, though single readings scatter. Potencies of inconclusive entries are doubtful fits and often do not repeat.
# Biological target: Fructose-bisphosphate aldolase (Giardia intestinalis (strain ATCC 50803 / WB clone C6)) (UniProt A8B2U2)
# Chain of UniProt A8B2U2 (A8B2U2 whole entry, looked up): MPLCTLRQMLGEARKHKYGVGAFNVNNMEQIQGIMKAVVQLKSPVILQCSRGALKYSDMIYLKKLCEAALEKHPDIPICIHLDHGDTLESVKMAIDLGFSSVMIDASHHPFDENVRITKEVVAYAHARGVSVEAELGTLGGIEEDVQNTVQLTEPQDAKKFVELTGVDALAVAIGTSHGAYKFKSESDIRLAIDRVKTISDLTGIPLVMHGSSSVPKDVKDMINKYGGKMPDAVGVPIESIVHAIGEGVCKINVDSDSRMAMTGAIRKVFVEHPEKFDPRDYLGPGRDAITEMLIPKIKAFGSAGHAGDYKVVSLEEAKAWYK
# Assay: qHTS Assay for Inhibitors of Fructose-1,6-bisphosphate Aldolase from Giardia Lamblia; also: nearly all actives have a fitted effect of over 55% in size
# Conditions: purified Giardia FBPA; activity, negative = inhibition: at 59.6 µM (top of the series) unless noted
# Outline: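 Giardia FBPA (40 nM reagent) was preincubated 10 min at RT with compound (up to 57.5 uM final), then substrate plus GAPDH/TPI/NAD/arsenate coupling system with diaphorase/resazurin was added; resorufin fluorescence (525/598 nm) was read after 20 min.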
# % is scaled to controls: 0 for no effect and ±100 for the full control effect; potency is read from the fitted curve at half-maximal effect; tags tell the direction and shape of the fitted curve.
Structure (SMILES),"activity, negative = inhibition",Potency
O=C1c2ccccc2N2C(=O)c3ccccc3C2N1Cc1ccco1 (stereo not drawn),inactive: 14.3%,
Cc1ccc(C(C)C)c(OCCNCCc2ccccc2)c1,,"inconclusive: 11.2 µM [inhibitor, partial curve]"
CCC(=O)N(CC(=O)Nc1sc(C)c(C)c1C(N)=O)C1CCCC1,inactive: 0.141%,
O=C(CN1C(=O)/C(=C\C=C\c2ccccc2)SC1=S)Nc1ccc(F)cc1,inactive: -0.985%,
CCOc1ccc(NC(=S)NC(=O)c2cnn(CC)c2)c([N+](=O)[O-])c1,,"inconclusive: 22.4 µM [inhibitor, partial curve]"
COC(=O)c1c(C)oc2c1cc(NS(=O)(=O)c1ccc(C(=O)O)cc1)c1ccccc12,,"inconclusive: 14.1 µM [inhibitor, partial curve]"
CC(=O)c1ccc(NC(=O)CSc2nnc(-c3ccco3)c(-c3ccco3)n2)cc1,,"inconclusive: 7.06 µM [inhibitor, partial curve]"
C/C(=N/NC(=O)CN1CCN(Cc2ccccc2Cl)CC1)c1cccs1,inactive: 6.25%,
CCCc1nc(NCC2CCCO2)c2nnn(Cc3ccccc3)c2n1 (stereo not drawn),inactive: -5.68%,
C=CCNc1nnc(Cc2ccc(F)cc2)c(=O)[nH]1,,"inconclusive: 28.2 µM [inhibitor, partial curve]"
O=C1CSC(=S)N1/N=C/c1cccnc1,,"inconclusive: 17.7 µM [inhibitor, single point]"
Cc1ccc[n+](CC(=O)Nc2ccc([N+](=O)[O-])cc2Cl)c1,,"inconclusive: 35.5 µM [inhibitor, partial curve, poor fit]"
Clc1ccccc1CN1CCN(c2ccccc2Cl)CC1,,"inconclusive: 14.1 µM [inhibitor, partial curve]"
O=C(CCS(=O)(=O)c1ccc(F)cc1)Nc1nc(-c2ccccn2)cs1,,"inconclusive: 8.91 µM [activator, partial curve]"
Cc1ccc(S(=O)(=O)Nc2ccc(NC(=O)/C=C/C(=O)O)cc2)cc1,inactive: 15.5%,
O=C(CNCc1ccco1)Nc1ccc(Oc2ccccc2)cc1,,"inconclusive: 14.1 µM [inhibitor, partial curve]"
Oc1cc2c(cc1C(c1ccc(Cl)c(Cl)c1)N1CCCC1)OCO2 (stereo not drawn),,"inconclusive: 19.9 µM [inhibitor, partial curve]"
Fc1ccccc1NC(=S)Nc1ccc(Br)cc1,inactive: 0.731%,
O=[N+]([O-])C1=CC=C2C(=NC3(CCCCC3)N2O)C1=NCCO,,active: 7.06 µM
COc1cc(C)c(C(C)C)cc1S(=O)(=O)n1ccnc1,,"inconclusive: 35.4 µM [inhibitor, single point]"
CN1CC(C(=O)c2ccc(Cl)cc2)C(c2ccc(N(C)C)cc2)C1 (stereo not drawn),inactive: -0.599%,
COc1ccc(S(=O)(=O)N2CCC(N3CCN(c4ccccc4OC)CC3)CC2)cc1,,"inconclusive: 19.9 µM [inhibitor, partial curve]"
Cc1ccc(S(=O)(=O)c2c(C)nn(-c3ccccc3)c2OC(=O)c2ccc(Br)o2)cc1,,"inconclusive: 15.8 µM [activator, single point]"
COCCNC(=O)Nc1ccc2nc(-c3cccs3)c(-c3cccs3)nc2c1,,"inconclusive: 0.561 µM [inhibitor, full curve]"
c1ccc2c(SCc3cn4ccccc4n3)nncc2c1,inactive: -17%,

Structure (SMILES),"activity, negative = inhibition",Potency
CC(C)C(=O)Nc1cccc(-c2cn3ccsc3n2)c1,inactive: -0.203%,
Cc1cc(C)cc(NC(=O)C(NCC2CCCO2)c2ccccc2)c1 (stereo not drawn),,active: 15.8 µM
C=CCOc1c(Br)cc(CNCCCN2CCOCC2)cc1OC,,"inconclusive: 25.1 µM [inhibitor, single point]"
COc1ccc(C(=O)NC(=S)Nc2cccnc2)cc1Cl,,active: 10 µM
CCC(c1nnnn1Cc1ccc(OC)cc1)N1CCN(c2ccc(OC)cc2)CC1 (stereo not drawn),,"inconclusive: 15.8 µM [inhibitor, single point]"
CCCCc1cc(=O)oc2c(CN3CCCC3)c(O)c(Cl)cc12,inactive: -11.4%,
COC(=O)/C=C1\N/C(=N\c2nc(C)cc(C)n2)N(c2ccccc2)C1=O,,"inconclusive: 7.06 µM [inhibitor, partial curve]"
O=C(O)CCc1ccc(NCc2cccc(Oc3ccccc3)c2)cc1,,"inconclusive: 15.8 µM [activator, partial curve]"
NS(=O)(=O)c1ccc(-c2ccc(/C=C3\NC(=S)NC3=O)o2)cc1,,active: 15.8 µM
O=C(/C=C/c1cccnc1)c1ccc(F)c(F)c1,inactive: -22.7%,
CCCCc1cc2c(cn1)=C(OC(=O)c1cnc3ccccc3n1)C(C)(OC(=O)CC)C(=O)C=2 (stereo not drawn),,"inconclusive: 15.8 µM [inhibitor, partial curve]"
C=CCn1c(O)c(CN2CCOCC2)c(C)c(C#N)c1=O,,active: 14.1 µM
CN(O)/C=N/C(=S)Nc1ccc(Cl)cc1Cl,,"inconclusive: 17.7 µM [inhibitor, partial curve]"
O=[N+]([O-])c1cc([N+](=O)[O-])c2c(=Nc3ccccc3)n(-c3ccccc3)n(O)c2c1,,"inconclusive: 19.9 µM [inhibitor, partial curve]"
C/C(=N\NC(=O)c1ccccc1O)c1c(O)n(Cc2ccccc2)c(=O)[nH]c1=O,,"inconclusive: 22.3 µM [activator, single point]"
CN(C)c1cc(-c2ccc(Cl)c(Cl)c2)oc(=O)c1Cl,inactive: 0.102%,
CCN(CC)c1ccc(N=C2C(=O)Nc3ccccc32)cc1,inactive: -16%,
N#C/C(=N\Nc1cc(Cl)cc(Cl)c1)c1nnc2n1CCCCC2,,"inconclusive: 14.1 µM [inhibitor, partial curve]"
CN1CCC(N(C)C(=S)Nc2ccc(F)cc2)CC1,,"inconclusive: 17.7 µM [inhibitor, single point]"
Cn1cc(S(=O)(=O)CC(=O)N2CCCc3ccccc32)c2ccccc21,,"inconclusive: 22.3 µM [inhibitor, single point]"
Nc1c(C(=O)NCc2ccco2)c2nc3ccccc3nc2n1CCc1ccccc1F,,"inconclusive: 19.9 µM [inhibitor, single point]"
Cc1ccc(N/N=C/c2c(C)c(C#N)c(=O)n(C)c2O)cc1C,,active: 12.6 µM
O=C(NCCCN1CCOCC1)c1ccc2c(=O)n(Cc3ccccc3)c(=S)[nH]c2c1,,"inconclusive: 15.8 µM [inhibitor, partial curve]"
COCCNC(=O)CNC(c1ccccc1)c1ccccc1,,active: 19.9 µM
CCNC(=O)N1c2ccc(OC)cc2C(C)=CC1(C)C,,"inconclusive: 20 µM [inhibitor, partial curve]"

Structure (SMILES),"activity, negative = inhibition",Potency
Cc1cc(C(=S)N2CCOCC2)c(C)n1-c1ccc(Cl)cc1,,"inconclusive: 44.6 µM [inhibitor, single point]"
O=C(CN1CCCC1)Nc1ccc(F)c(Cl)c1,,"inconclusive: 17.8 µM [inhibitor, partial curve]"
CCCOc1c(Br)cc(C2C3=C(CCCC3=O)N(CC)C3=C2C(=O)CCC3)cc1OC,,"inconclusive: 17.7 µM [inhibitor, single point]"
CSC(=N)N,,inactive
O=C(CSc1ncn[nH]1)Nc1ccccc1Sc1ccc(Cl)cc1,,"inconclusive: 15.8 µM [inhibitor, partial curve]"
Cc1noc(C)c1COc1ccc(C(=O)NCCc2ccccn2)cc1,inactive: 5.44%,
CCOC(=O)/C(C#N)=C/c1ccc(OC(=O)c2ccccn2)cc1,,"inconclusive: 22.3 µM [inhibitor, partial curve]"
Cc1csc(NC(=O)c2nc3nccc(C)n3n2)n1,,"inconclusive: 5.01 µM [inhibitor, partial curve]"
COc1ccc2[nH]c3c4c(ccc3c2c1)C(=O)C=CC4=O,,"inconclusive: 4.46 µM [inhibitor, full curve]"
O=C1OC(c2ccc(O)c(S(=O)(=O)O)c2)(c2ccc(O)c(S(=O)(=O)O)c2)c2c(Br)c(Br)c(Br)c(Br)c21,,"inconclusive: 15.8 µM [activator, partial curve]"
CCN(CCN(C)C)C(=O)c1ccc2c(c1NCCO)C(=O)c1ccccc1C2=O,,"inconclusive: 8.89 µM [inhibitor, partial curve, poor fit]"
Cc1ccccc1N1C(S)=C(C#N)C(=O)NC1c1ccco1 (stereo not drawn),,"inconclusive: 5 µM [inhibitor, single point]"
Oc1[nH]c2ccc(Br)cc2c1N=Nc1nn[nH]n1,,active: 15.8 µM
Cc1c(C#N)c(O)n(CCO)c(=O)c1N=Nc1ccc(S(N)(=O)=O)cc1,,"inconclusive: 19.9 µM [inhibitor, single point]"
CCOC(=O)CSc1nc2c(sc(=S)n2-c2ccccc2OC)c(=O)n1Cc1ccco1,inactive: -1.01%,
O=C1NC2=C(CCc3ccccc32)C(c2ccccc2)N1 (stereo not drawn),,"inconclusive: 19.9 µM [inhibitor, single point]"
COc1cccc(C2CC(=O)N3CN(c4ccccc4F)CSC3=C2C#N)c1 (stereo not drawn),,active: 3.15 µM
O=[n+]1c2c(n([O-])c3cc(F)c(N4CCCC4)cc31)CCCC2,,"inconclusive: 19.9 µM [inhibitor, partial curve]"
COc1ccc(-c2noc(CCCC(=O)NCc3ccco3)n2)cc1OC,inactive: 0.915%,
O=C(O)c1ccccc1SCc1cn2cc(Cl)ccc2n1,,"inconclusive: 17.7 µM [inhibitor, single point]"
CCOc1ccc(NC2C=CS(=O)(=O)C2)cc1 (stereo not drawn),,"inconclusive: 19.9 µM [inhibitor, single point]"
CC(=O)Nc1ccc(NC(=O)Nc2ccc(C)c(C)c2)cc1,inactive: 1.75%,
Cc1cc(Cl)cc(C)c1OCCOCCNCc1ccccc1,,"inconclusive: 10 µM [inhibitor, partial curve]"
